Assay results taken from the RNAGym collection of RNA variant scans (doi:10.7554/elife.90254).
The source gives no read counts; variants with many changes may rest on few reads.

B1: LINE1-mini (parent)
chain: GGCAGAGCUCAACACAGCGUGGCAAAGUGGCUGUGGCUAGACUGCC

Variants of: B1
Assay: self-cleavage, relative activity (ratio to wild type); higher = more cleavage; in vitro, sequencing; the parent is a self-cleaving ribozyme

| Variant | self-cleavage |
| --- | --- |
| G19U G29U U43C G44A | 0.06 |
| G19U G30A A39G C42G | 0.05 |
| G19U G30A G36C | 0.1 |
| G19U G30C G36U C45A | 0.06 |
| G19U G30U U32C A41C | 0.03 |
| G19U G33A U38C | 0.03 |
| G19U G33C C37A G40U | 0.09 |
| G19U G33C U38G | 0.01 |
| G19U G35C G40U | 0.02 |
| G19U G36A A41U U43G | 0.04 |
| G19U G36A G40A | 0.31 |
| G19U G36U G40U C42G | 0.21 |
| G19U G40A G44U | 0.05 |
| G19U G40C C46U | 0.06 |
| G19U G40U U43G | 0.5 |
| G19U U20A C37G | 0.02 |
| G19U U20A U32G U34G G44C | 0.07 |
| G19U U20C C31A C37G | 0.02 |
| G19U U20C G29A C37A C45G | 0 |
| G19U U20C U32G U43G | 0 |
| G19U U20G A24C | 1.13 |
| G19U U20G C23U | 0.36 |
| G19U U20G C37A | 0.01 |
| G19U U20G C45G | 0.22 |

| Variant | self-cleavage |
| --- | --- |
| G19U U20G C46A | 0.82 |
| G19U U20G G27C C42U | 2.64 |
| G19U U20G G27U | 1.55 |
| G19U U20G G35U C37G | 0.06 |
| G19U U28C C37G A41U | 0.04 |
| G19U U28C C42A C45U C46U | 0.01 |
| G19U U28C U38A | 0.39 |
| G19U U28G G44A | 0.04 |
| G19U U32A A41U U43A C45U | 0.03 |
| G19U U32C G36A C46A | 0.01 |
| G19U U32C U38C A39U A41U C42G | 0.08 |
| G19U U32G G33U C46G | 0.03 |
| G19U U34C A41G | 0.04 |
| G19U U34C U38C | 0.09 |
| G19U U34G A41U | 0.52 |
| G19U U34G G36U | 0.04 |
| G19U U34G U38A | 0.06 |
| G19U U38C A39U | 0.16 |
| G19U U38C C42U G44C | 0.03 |
| U20A A24C G29C C31G | 0.33 |
| U20A A24C G33C | 0.04 |
| U20A A24G A26G G29U C46A | 0.21 |
| U20A A24U A25G U34A G44U | 0.03 |
| U20A A24U G27A G40A C46G | 0.12 |

| Variant | self-cleavage |
| --- | --- |
| U20A A24U G40U | 0.08 |
| U20A A25C A39U C46U | 0.06 |
| U20A A25C A41G | 0.06 |
| U20A A25C U43A | 0.04 |
| U20A A25G A26U G40U | 0.02 |
| U20A A25G C31G | 0.02 |
| U20A A25U G29C C42A | 0.08 |
| U20A A25U G29U G44C C46G | 0.07 |
| U20A A26C C42U U43C | 0.03 |
| U20A A26C G29U C45A | 0.05 |
| U20A A26C G30C | 0.08 |
| U20A A26C G30C U38A | 0.55 |
| U20A A26C G36U U38A C46A | 0.05 |
| U20A A26G C31U | 0.03 |
| U20A A26G G29A U43A C45G | 0.01 |
| U20A A26G G29C | 0.33 |
| U20A A26G G36C | 0.15 |
| U20A A26G G44A | 0.5 |
| U20A A26U U32A A39G | 0.01 |
| U20A A26U U38A | 0.13 |
| U20A A26U U43G | 0.05 |
| U20A A39G C46G | 0.02 |
| U20A A41C C45A | 0.04 |
| U20A A41C C46A | 0.03 |

| Variant | self-cleavage |
| --- | --- |
| U20A A41U C45G | 0.22 |
| U20A C23A C37U A39G | 0.01 |
| U20A C23A C45G | 0.33 |
| U20A C23A G27A C31A | 0.44 |
| U20A C23A U38A | 0.14 |
| U20A C23G G29A | 0.52 |
| U20A C23G G33C G44A | 0.01 |
| U20A C23G G40C | 0.02 |
| U20A C23G U32A | 0.06 |
| U20A C23G U43A | 0.03 |
| U20A C23U A24U | 2.06 |
| U20A C23U C37U | 0.04 |
| U20A C23U G35A | 0.21 |
| U20A C23U G36A C37U | 0.02 |
| U20A C23U G36U | 0.07 |
| U20A C23U U34A A41C | 0.08 |
| U20A C23U U38G U43C | 0.02 |
| U20A C23U U43A | 0.01 |
| U20A C31A C37A | 0.05 |
| U20A C31A U38G | 0.01 |
| U20A C31G G40U | 0.14 |
| U20A C31G U32G C45U | 0.01 |
| U20A C37A C42G | 0.02 |
| U20A C37A G40A | 0.16 |

| Variant | self-cleavage |
| --- | --- |
| U20A C37A G44C | 0.02 |
| U20A G21A A26C | 0.69 |
| U20A G21A C23U | 0.39 |
| U20A G21A G22C | 0.42 |
| U20A G21A G29A C37U | 0.02 |
| U20A G21A G30A C45U | 2.02 |
| U20A G21C C23G | 0.14 |
| U20A G22A C31A | 0.07 |
| U20A G22A C31A G35U | 0.02 |
| U20A G22C C23A A26C G33U G44U | 0.01 |
| U20A G22C C23U C45G | 0.08 |
| U20A G22C G29A | 0.8 |
| U20A G22U A24U G35C G40A C46A | 0.14 |
| U20A G22U A25C G40U | 0.14 |
| U20A G22U A26U G27A A41G C42U | 0.01 |
| U20A G22U A39G | 0.06 |
| U20A G22U C46U | 0.72 |
| U20A G27A C31G G35C U43A | 0.02 |
| U20A G27A U34G | 0.56 |
| U20A G27C C31A | 0.86 |
| U20A G27U C31A | 0.33 |
| U20A G27U C31A C42A | 0.04 |
| U20A G27U G44C | 0.62 |
| U20A G27U U28A C37A C45G | 0.03 |

| Variant | self-cleavage |
| --- | --- |
| U20A G29A C31U C42A C45G | 0.05 |
| U20A G29A C46A | 1.26 |
| U20A G29A G40U G44U | 0.06 |
| U20A G29C A39C | 0.07 |
| U20A G29C U32C G33A G35C U38G C45A C46U | 0 |
| U20A G30A C31U | 0 |
| U20A G30A G44C | 0.69 |
| U20A G30A U32G U38A | 0.06 |
| U20A G30A U38G | 0.03 |
| U20A G30C U38A G44U | 0.09 |
| U20A G33A U34A | 0 |
| U20A G35A C45G | 0.08 |
| U20A G35U A39G C42G | 0.04 |
| U20A G40A U43A C45A | 0.01 |
| U20A G40U C42U | 0.01 |
| U20A G44C C45U | 0.03 |
| U20A U28A C37A | 0.04 |
| U20A U28C C42G | 0.01 |
| U20A U28C G30A | 0.23 |
| U20A U28C G30C A39C | 0.05 |
| U20A U28G G35A | 0.03 |
| U20A U32A A39C | 0.03 |
| U20A U32A C46A | 0.02 |
| U20A U32G C45G | 0.09 |

| Variant | self-cleavage |
| --- | --- |
| U20A U34C G35U | 0.06 |
| U20A U34C G36U G40A | 0.13 |
| U20A U34G C42U C45A | 0.03 |
| U20A U38A C42A | 0.01 |
| U20A U38G A41G | 0 |
| U20A U38G C42A | 0.01 |
| U20A U38G U43G | 0 |
| U20C A24C A26U A39G A41G C46G | 0 |
| U20C A24C C31U | 0.06 |
| U20C A24C U28G C42G | 0.01 |
| U20C A24C U38C | 0.26 |
| U20C A24G A39G | 0.03 |
| U20C A24U A25U | 1.19 |
| U20C A24U C37G | 0.01 |
| U20C A24U C45G | 0.04 |
| U20C A24U G33A | 0.02 |
| U20C A24U U28A G33U | 0.02 |
| U20C A25C G29U U34C G35U C45A | 0.11 |
| U20C A25G G27A C37A A39U | 0.05 |
| U20C A25G G30U C37U | 0 |
| U20C A25U G30A U43C | 0.05 |
| U20C A26G G36A | 0.05 |
| U20C A26U C42U | 0.27 |
